Assay results: PubChem BioAssay AID488969 (Vanderbilt High Throughput Screening Facility, 2010)
In all, about 110,000 compounds were measured (“z-score”: median about -0.1, highest 2% from about 2 on). The list shows a part of the results. Active and inactive are the calls of the source.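 Rule for the calls: active = z-score in the third read window above 3 or below -3; inactive = the rest.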

Each compound was assayed against Metabotropic glutamate receptor 8 (Rattus norvegicus) (UniProt P70579) (assay: mGluR8 Gi/Go-coupled signaling modulation – cell-based, rat, thallium flux, HTS, primary screen (AID 488969)). Details: HEK293 rat mGluR8, GIRK (G protein-gated inwardly rectifying potassium channel) thallium flux, FluoZin2; at 10 µM; stronger effect = higher value; submaximal glutamate (EC20) added with thallium.
UniProt P70579, sequence (P70579 whole entry, looked up): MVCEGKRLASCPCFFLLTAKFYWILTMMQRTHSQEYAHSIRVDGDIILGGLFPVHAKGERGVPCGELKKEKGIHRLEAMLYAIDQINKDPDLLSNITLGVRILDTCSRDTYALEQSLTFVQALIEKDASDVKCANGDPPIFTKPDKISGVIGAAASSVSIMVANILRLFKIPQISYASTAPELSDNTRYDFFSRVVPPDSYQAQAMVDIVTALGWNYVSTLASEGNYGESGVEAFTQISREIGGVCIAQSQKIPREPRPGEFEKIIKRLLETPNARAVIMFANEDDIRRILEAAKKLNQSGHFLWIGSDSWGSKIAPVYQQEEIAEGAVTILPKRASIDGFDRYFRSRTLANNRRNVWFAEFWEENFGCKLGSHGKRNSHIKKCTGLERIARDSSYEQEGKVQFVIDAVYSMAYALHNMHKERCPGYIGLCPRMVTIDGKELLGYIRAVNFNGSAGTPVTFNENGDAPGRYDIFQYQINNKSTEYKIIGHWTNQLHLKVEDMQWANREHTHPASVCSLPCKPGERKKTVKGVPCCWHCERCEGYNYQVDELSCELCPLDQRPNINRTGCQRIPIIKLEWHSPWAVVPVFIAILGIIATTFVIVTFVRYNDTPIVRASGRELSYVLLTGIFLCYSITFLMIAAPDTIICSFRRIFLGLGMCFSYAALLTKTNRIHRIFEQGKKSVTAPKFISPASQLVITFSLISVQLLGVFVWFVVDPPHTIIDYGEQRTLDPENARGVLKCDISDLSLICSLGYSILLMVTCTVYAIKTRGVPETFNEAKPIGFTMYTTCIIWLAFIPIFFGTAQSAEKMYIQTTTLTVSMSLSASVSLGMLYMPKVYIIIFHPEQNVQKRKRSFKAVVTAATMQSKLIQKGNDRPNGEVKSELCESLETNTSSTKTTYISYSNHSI

| Structure (SMILES) | z-score |
| --- | --- |
| Cc1ccc(-n2ncc(N(C)C)c(Cl)c2=O)cc1 | 0.00759 |
| CCOC(=O)CNC(=O)c1cnn2cccnc12 | 0.154 |
| CC(C)OP(=O)(c1ccc(N(C)C)cc1)C(Nc1ccccc1)c1cccnc1 (configuration not stated) | -0.279 |
| CCCc1nnc(NC(=O)CN2C(=O)C3C4C=CC(C4)C3C2=O)s1 (configuration not stated) | 0.0617 |
| Cn1c(=O)c2c(SCC(=O)Nc3ccc4c(c3)OCCO4)nc(CC(C)(C)C)nc2n(C)c1=O | 0.141 |
| COc1ccc(N2CCN(c3ccc(N4C(=O)COCC4=O)cc3[N+](=O)[O-])CC2)cc1 | -0.0476 |
| O=C(Cn1c(=O)n(Cc2ccc3c(c2)OCO3)c(=O)c2ccccc21)N1CCCc2ccccc21 | -0.353 |
| CCn1ncc(Br)c1C(=O)Nc1ccccc1C(=O)OC | -0.647 |
| COc1ccc(-c2nnc(Nc3ccc(OC)c(C(=O)N4CCCCC4)c3)c3ccccc23)cc1 | -0.279 |
| O=C(NCCCN1CCN(CCCNC(=O)c2cccc([N+](=O)[O-])c2)CC1)c1cccc([N+](=O)[O-])c1 | -0.584 |
| COc1ccccc1N(CC(=O)N1CCCCC1)S(=O)(=O)c1ccccc1 | -0.979 |
| Cc1noc(/C=C/N(C)C)c1S(=O)(=O)N1CCCC(C(=O)N2CCc3ccccc32)C1 (configuration not stated) | -0.205 |
| NNC(=O)CN1C(=O)Nc2ccc(Br)cc2C1c1ccccc1 (configuration not stated) | -0.236 |
| Cc1ccc(/C=C/C(=O)Nc2nccs2)o1 | -0.147 |
| Cc1oc(/N=C/c2ccccc2O)c(C#N)c1C | -0.169 |
| CC(C(=O)Nc1sc2c(c1C(=O)NCc1ccco1)CCCC2)N1C(=O)c2ccccc2C1=O (configuration not stated) | -0.16 |
| N#Cc1cc2ccccc2nc1SCC(=O)Nc1ccc(S(=O)(=O)N2CCCC2)cc1 | 0.0862 |
| COCCN(C(=O)CNC(=O)c1cccs1)C(C(=O)NC1CCCCC1)c1ccco1 (configuration not stated) | -0.195 |
| CC1(C)Oc2ccc3ccc(=O)oc3c2/C(=C/NCCO)C1=O | -0.152 |
| COc1cccc(OC)c1C(=O)Nc1ccc2c3c(cccc13)CC2 | -0.248 |
| Cc1cc(C)cc(N(CC(=O)N2CCn3c2nc2ccccc23)S(=O)(=O)c2c(C)noc2C)c1 | 1.97 |
| C/C(=C\C(=O)c1ccccc1)Nc1ccc(N2CCOCC2)cc1 | -0.153 |

| Structure (SMILES) | z-score |
| --- | --- |
| COc1ccc2nc(-n3c(O)c(C4=c5ccccc5=NC4=O)[nH]c3=S)sc2c1 | 0.205 |
| CC1CCCC(NC(=O)COC(=O)c2ccc3ccccc3n2)C1C (configuration not stated) | -0.336 |
| COc1ccc(NCc2ccc3c(c2)OCO3)cc1Cl | 0.737 |
| c1csc(C2=Nn3c(nnc3-c3ccncc3)SC2)c1 | 0.00281 |
| N#C/C(C(=O)NCc1ccco1)=C1/SC(Cc2ccc(Cl)cc2)C(=O)N1c1ccccc1 (configuration not stated) | -0.209 |
| CN1CCN(S(=O)(=O)c2ccc(NC(=O)C(C)(C)C)cc2)CC1 | -0.556 |
| CCN1C(=O)/C(=C2/C=Cc3cc(C)ccc3N2CC)N(C)C1=S | 0.264 |
| Cn1c(N2CCOCC2)nc2c1c(=O)n(Cc1ccc(Cl)c(Cl)c1)c(=O)n2C | -0.258 |
| CN(C)S(=O)(=O)c1ccc(NC(=O)COC(=O)c2ccccn2)cc1 | -0.152 |
| Cc1cc(C)n(-c2nc3ccccc3nc2N2CCN(C(=O)c3ccc(F)cc3)CC2)n1 | 0.0365 |
| CCOc1ccc(-c2n[nH]c(C(=O)NN)c2C)cc1 | 0.202 |
| CCN(CC)C(=O)COc1ccc(Br)cc1Cl | -0.89 |
| Cc1cn(Cc2ccccc2)c(=O)[nH]c1=O | -0.129 |
| CCn1c(=O)c(C(=O)NC(C)C)c(O)c2ccccc21 | -0.78 |
| O=C(Nc1ccc2c(c1)OCCO2)c1cc2sccc2n1Cc1ccccc1 | -0.848 |
| CCCc1nnc(NC(=O)CCC(=O)O)s1 | 0.195 |
| O=C(CN1CCN(C(=O)c2ccco2)CC1)Nc1cc(C(F)(F)F)ccc1Cl | 0.217 |
| O=C(CN(c1ccccc1)S(=O)(=O)c1ccc(Cl)cc1)Nc1ccccc1C(=O)N1CCCC1 | -0.307 |
| Cc1cc(C)c(C)c(S(=O)(=O)N2CCN(Cc3nc4ccccc4[nH]3)CC2)c1C | -0.269 |
| O=C(NC(=S)Nc1ccc(N2CCCCC2)cc1)c1cccs1 | active: 11 |
| CCOc1ccccc1N1CCN(C(=O)CC(C)C)CC1 | -0.226 |
| O=C(NC1CCCCC1)C(c1ccc2ncccc2c1)N(Cc1ccccc1)C(=O)c1cccs1 (configuration not stated) | -1.29 |

| Structure (SMILES) | z-score |
| --- | --- |
| O=C(NCCCN1CCCC1=O)c1cc(NS(=O)(=O)c2ccc(F)cc2)cc(NS(=O)(=O)c2ccc(F)cc2)c1 | -0.119 |
| O=C(N/C=C/c1ccc(Cl)cc1)NCc1ccc(Cl)cc1 | 0.198 |
| Nc1nc(NC(=O)c2cccc(S(=O)(=O)N3CCCCCC3)c2)nc(-c2ccccc2)n1 | 0.128 |
| CC(=O)OCCCNc1cc(Sc2nc3ccccc3s2)c2nonc2c1[N+](=O)[O-] | 0.511 |
| Cc1cccc(N2CCN(C(=O)Cc3ccc(Br)cc3)CC2)c1C | -0.202 |
| CC(C)C(NS(=O)(=O)c1cccs1)C(=O)N(C)Cc1ccccc1 (configuration not stated) | -0.217 |
| O=C(Nc1nnc(-c2cccs2)o1)c1cccc(C(F)(F)F)c1 | active: 14.1 |
| COc1ccc(-c2cc(C(F)(F)F)nc(N3CCN(C)CC3)n2)cc1OC | -0.0828 |
| CC1=CCC2C(=O)N(c3ccc(Br)cc3C)C(=O)C2C1 (configuration not stated) | 0.000957 |
| COc1cccc(-c2csc(N3CCN(CC(=O)Nc4ccc5c(c4)OCO5)CC3)n2)c1 | 0.233 |
| CC(C)(C)c1nnc(N/N=C/c2ccccc2O)n(N)c1=O | -0.149 |
| O=C(O)C1C2C=CC(O2)C1C(=O)NC1CCCc2ccccc21 (configuration not stated) | -0.332 |
| CSCCC(NC(=O)OC(C)(C)C)C(=O)Oc1ccc2c(=O)c(-c3ccc4c(c3)OCCO4)coc2c1 (configuration not stated) | -0.216 |
| COC(=O)c1ccc(C(=O)Nc2ccc3nc(-c4cccnc4)[nH]c3c2)cc1 | -0.377 |
| N#CC1=C(N)NC(SCC(=O)Nc2ccc(Br)cc2)=C(C#N)C12CCCCC2 | -0.331 |
| COCCNC(=O)C(c1cccs1)N(CCc1ccccc1)C(=O)Cn1nnc2ccccc21 (configuration not stated) | 0.113 |
| O=C(CCCCn1c(=O)[nH]c2ccsc2c1=O)NCc1ccc2c(c1)OCO2 | -0.295 |
| O=C1N2c3ccccc3CCc3cccc(c32)C1(O)C(F)(F)F (configuration not stated) | 1.23 |
| CC(C)(C)NS(=O)(=O)c1ccc(NC(=O)c2cc(-c3ccccc3)nc3ccccc23)cc1 | -0.226 |
| CCn1c(SCc2nc(-c3cccs3)no2)nnc1-c1c[nH]c2ccccc12 | 0.136 |
| OCCN1CCN(c2ncnc3ccc(Br)cc23)CC1 | -0.924 |
| O=C(O)c1ccccc1COc1ccccc1Cl | -0.12 |

| Structure (SMILES) | z-score |
| --- | --- |
| O=C(NCCN1CCOCC1)C(=O)NCC1CCCO1 (configuration not stated) | -0.182 |
| O=C(CSc1nc2ccccc2[nH]1)N/N=C/C=C\c1ccccc1[N+](=O)[O-] | -0.249 |
| COc1ccc(S(=O)(=O)N2CCC(O)(c3ccc4c(c3)OCO4)CC2)cc1 | 0.413 |
| CCc1ccc(NC(=O)CSCCN2C(=O)c3ccccc3C2=O)cc1 | -0.305 |
| COc1ccc(OC)c(/C=C2\S/C(=N/NC(=O)c3ccc4ccccc4c3)NC2=O)c1 | -1.95 |
| CC(C)OCCCn1c(=S)[nH]c2cc3c(cc2c1=O)OCO3 | active: 6.19 |
| Cc1cc(N(C)C)c(C#N)c(N2CCCCC2)n1 | -0.733 |
| CC(C)OC(=O)CSc1nnc(CNc2cccc(Cl)c2)n1C | -0.138 |
| O=C(Nc1ccccc1OC(F)F)c1ccccc1 | 0.14 |
| CCOc1ccc2nc(Nc3nc(CSc4nnnn4-c4ccccc4)cc(=O)[nH]3)nc(C)c2c1 | -0.445 |
| Cn1c(CSc2nc3ccccc3s2)nnc1SCC(=O)NCc1cccnc1 | -0.259 |
| CCc1cc(Br)ccc1N1C(=O)C2CC=CCC2C1=O (configuration not stated) | -0.175 |
| CCCCCNC(=O)C(C)Sc1ccc(Cl)cc1 (configuration not stated) | -0.75 |
| O=C(O)c1cc(N2C(=O)C3CC=CCC3C2=O)ccc1NCc1cccnc1 (configuration not stated) | 0.0694 |
| Cc1cc(C)cc(NC(=O)C2CCCN2C(=O)Oc2ccccc2)c1 (configuration not stated) | 0.0407 |
| CCCCCC(=O)N/N=C/c1ccc(N(C)C)cc1 | -0.127 |
| CCOc1ccccc1NC(=O)C1CCCN(S(=O)(=O)c2cccc3cccnc23)C1 (configuration not stated) | -0.252 |
| Cc1ccc2[nH]c(C)c(CC(=O)O)c2c1 | -0.101 |
| COc1cc(/C=C(\C#N)C(=O)NC2CCCCC2C)ccc1OS(=O)(=O)c1ccc(C)cc1 (configuration not stated) | 0.0167 |
| CCOC(=O)c1csc(Nc2nc3ccc(F)cc3s2)n1 | -0.247 |
| COCCn1c(C)cc(C(=O)CSc2nc3ccccc3c(=O)n2Cc2ccco2)c1C | -0.0437 |
| Cc1nn(Cc2ccc(Cl)cc2)c(C)c1N | 0.168 |

| Structure (SMILES) | z-score |
| --- | --- |
| CC1(C)C2CC=C(/C=N/NC(=O)c3ccc(Cl)cc3)C1C2 (configuration not stated) | 0.355 |
| CCOc1cc(/C=N/O)ccc1OS(=O)(=O)c1ccc(C)cc1 | -0.55 |
| C=CCn1c(SCc2cc(=O)n3cc(C)ccc3n2)nnc1-c1cccc(C)c1 | -0.416 |
| Cc1nc2sc(C)c(C)c2c(=O)o1 | -0.0278 |
| Cc1nc(NS(=O)(=O)c2ccc(Br)cc2)c2c3c(sc2n1)CCC3 | -0.442 |
| Cc1cc(C(F)(F)F)c2c(C)nn(CCc3nn[nH]n3)c2n1 | 0.0333 |
| COc1ccccc1OCc1ccc(C(=O)Nc2ccccc2F)cc1 | -0.156 |
| OC(COCc1ccco1)CN1CCN(C(c2ccccc2)c2ccccc2)CC1 (configuration not stated) | -0.619 |
| Cc1c(NC(=O)C(=O)/C=C(\O)c2ccc(Br)cc2)c(=O)n(-c2ccccc2)n1C | -0.237 |
| CC(C)CC1CC(=O)OC1(C)C(=O)CSc1nc2ccccc2s1 (configuration not stated) | -0.602 |
| CCOC(=O)c1[nH]c2ccc(OC)cc2c1NC(=S)N1CCN(c2ccc(F)cc2)CC1 | 0.623 |
| CC1(C)NC(=O)N(CCCOc2ccc3c(c2)CCC3)C1=O | 0.297 |
| Cc1nc(NC(=O)c2cccnc2)ccc1Br | -0.136 |
| CCOC(=O)Cc1nn(CCc2ccccn2)c(=O)c2ccccc12 | 0.0376 |
| CCCCc1nnc(NC(=O)CCSc2ccccc2)s1 | 0.0449 |
| O=C(N/N=C/c1cccs1)c1c[nH]c2ccccc12 | 1.01 |
| O=C(Cn1nnc2ccccc21)N/N=C/c1ccco1 | 0.356 |
| COc1ccc(NC(=O)CN2C(=O)C(C)SC(C)C2=O)c(OC)c1 (configuration not stated) | -0.101 |
| CCc1cccc(C)c1NC(=O)C(c1ccccc1)N1CCC1=O (configuration not stated) | -0.0775 |
